Source: publication PMC4789653, “Atomic visualization of a flipped-back conformation of bisected glycans bound to specific lectins” (Scientific Reports, 2016)

Key:
PHA-E = molecular target: T1, PHA-E (Phaseolus vulgaris, UniProt P05088); conditions: crystal pH 4.5, PEG3,350, 20 °C; primary binding site; Ca and Mn present; labelled compound (pyridylamino)
T1 construct: gene DLEC1

Calsepa = molecular target: T2, Calsepa (Calystegia sepium, UniProt P93114); conditions: crystal pH 7.5, 3.0 M NaCl, 20 °C; NMR at 15 °C, very weak binding
T2 construct: recombinant lectin bought from Wako Pure Chemicals; 16 kDa
T2 sequence (P93114 2-153): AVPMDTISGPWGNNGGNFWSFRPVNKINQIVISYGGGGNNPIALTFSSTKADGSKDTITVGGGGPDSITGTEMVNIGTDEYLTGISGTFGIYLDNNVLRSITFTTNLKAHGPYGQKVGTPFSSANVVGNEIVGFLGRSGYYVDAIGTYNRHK

SMILES	X-ray crystal structure 3.0 Å (PHA-E)	X-ray crystal structure 1.85 Å; also 1H-NMR titration and transferred NOE (Calsepa)
CC(=O)N[C@H]1[C@H](O[C@@H]([C@H](O)[C@H](CNc2ccccn2)NC(C)=O)[C@H](O)CO[C@@H]2O[C@@H](C)[C@@H](O)[C@@H](O)[C@@H]2O)O[C@H](CO)[C@@H](O[C@@H]2O[C@H](CO[C@H]3O[C@H](CO)[C@@H](O)[C@H](O)[C@@H]3O[C@@H]3O[C@H](CO)[C@@H](O[C@@H]4O[C@H](CO)[C@H](O)[C@H](O)[C@H]4O)[C@H](O)[C@H]3NC(C)=O)[C@@H](O[C@@H]3O[C@H](CO)[C@@H](O)[C@H](O)[C@H]3NC(C)=O)[C@H](O[C@H]3O[C@H](CO)[C@@H](O)[C@H](O)[C@@H]3O[C@@H]3O[C@H](CO)[C@@H](O)[C@H](O)[C@H]3NC(C)=O)[C@@H]2O)[C@@H]1O [glycan 2, GlcNAcβ1–2Manα1–3[GlcNAcβ1–4][Galβ1–4GlcNAcβ1–2Manα1–6]Manβ1–4GlcNAcβ1–4[Fucα1–6]GlcNAc-pyridylamino (PA)]	crystal structure of PHA-E in complex with a longer bisected N-glycan derivative	–
CO[C@H]1O[C@H](CO[C@H]2O[C@H](CO)[C@@H](O)[C@H](O)[C@@H]2O[C@@H]2O[C@H](CO)[C@@H](O)[C@H](O)[C@H]2NC(C)=O)[C@@H](O[C@@H]2O[C@H](CO)[C@@H](O)[C@H](O)[C@H]2NC(C)=O)[C@H](O[C@H]2O[C@H](CO)[C@@H](O)[C@H](O)[C@@H]2O[C@@H]2O[C@H](CO)[C@@H](O)[C@H](O)[C@H]2NC(C)=O)[C@@H]1O [glycan 1, GlcNAcβ1–2Manα1–3[GlcNAcβ1–4][GlcNAcβ1–2Manα1–6]Manα1-O-methyl]	–	crystal structure of Calsepa in complex with GlcNAc-terminated bisected N-glycan unit
